# According to the supplement of paper PMC11417369:
# This is one part of the list.
# System: PF3D7_0420300 AP2 domain 1 (GST-tagged)
# Experiment: gcPBM binding intensity (ln(normalized median fluorescence intensity)); higher = stronger DNA binding
# In short: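 For binding intensity, the highest Masliner-normalised natural-log median intensity across replicate spots of either probe orientation was taken. Protein bound to the array was stained with Alexa488 anti-GST antibody and scanned at 488 nm. The protein, GST-tagged P. falciparum DNA-binding domains from E. coli at about 25 μg on average, had been applied for 1 h to an Agilent 4 × 180k array of primer-extended double-stranded 36-bp intergenic genomic probes and negative controls.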
row,Sequence,gcPBM binding intensity (ln)
1,AATAATAAAAAATACGCACACATGTAAACGTATGTT [CACACA_site3336],9.47
2,GGCGATATAGAACTACGTACTTATACAAATTATAAT [XGTACX_site2307],9.12
3,ACACATAAATGTATATATATATAAATATATGTATGT [CACACA_negctrl_site1532],9.44
4,TATATATATATATATAAGCTTATAATAAAACAAAAA [XGTACX_negctrl_site568],9.29
5,ATAGCAATAATGGAAAGTACAAAAAAACTTGTTATA [XGTACX_site8518],9.29
6,TGTATTAATAAAAATACACACATCATATTATATAAA [CACACA_site3534],9.3
7,AACAAAATAAAACACACACACAAATGTACATATATA [CACACA_site2424],10.2
8,TAGAAGCATCATTTTACACACATGCAAATGTAAACT [CACACA_site6973],9.41
9,ATTTTGTATTGACGCTGTACAAACATTAATATAATA [XGTACX_site2496],9.17
10,TTTTGCGTAGCAACGAGGTTTTTAAAAATGTAACCA [GTGCAC_negctrl_site691],8.85
11,ACATATGAATATTTTTGTACGTATATTGTTATTCTT [XGTACX_site4720],9.61
12,AAAAAAAAAAAACACACACACACATACAAAATATAT [CACACA_site1448],10.3
13,TTTTTTTTTATTATCATGCACACATTTTTTTTTTTT [CACACA_site2254],9.61
14,GTAATTTAAATAACAAGTACTAATGTGGATAAGCAG [XGTACX_site1163],9.51
15,AATTATACGAAATAAAACTTAATAGACAAAAAATTA [CACACA_negctrl_site1384],9.33
16,ATAATATGCAATATTACACACAATTCATCATTTTTT [CACACA_site7477],9.46
17,GTATATTTAAATAAAAGTACGTAAAGATATATTTAA [XGTACX_site8087],9.04
18,ATATGTAAAATGAAGATACATACATACATACATACA [CACACA_negctrl_site715],9.26
19,ATGTTATAAAATATATGTACATATTTATATAAAATA [XGTACX_site5766],9.14
20,ATATTATATATATGATGTACTAAATATATTATTATG [XGTACX_site1703],9.22
21,ATAAATAATTAGAATTGTACAAAAATTATATATATG [XGTACX_site5107],9.21
22,TATTTTATATTATCATGTACAAAAAAAAAGAAAAGA [XGTACX_site5379],9.17

row,Sequence,gcPBM binding intensity (ln)
1,TTTATATTCTTTTTTTAACACACAAAAAAAATAAAA [CACACA_site8574],8.98
2,TCTATTAATGAATATACACACATTATATATATATAT [CACACA_site5410],9.43
3,ATATATTTATATAAATGTACACGTGAATATATAATA [XGTACX_site1166],9.33
4,TATATAAAAAGTAATTGTACATATATATATATATAT [XGTACX_site7953],9.03
5,TATGCAAATTAATAATGTACGAAATATTTATAATTT [XGTACX_site2324],9.02
6,AAAAGGAACGGACACACACACATATATATATATATA [CACACA_site5894],9.82
7,AATAAATTAGAAGGATGTACTTTGTTTAATATAGAG [XGTACX_site1943],9.23
8,TAATATAATCTGAGTGCACACAAATAAATAAACATA [CACACA_site8032],9.54
9,AGGTTATATATGAACAAAAATAAAATATTCATAGGC [TGCATGCA_negctrl_site46],9.61
10,GTTATACATTTGAAAAGTACTCATGATTTTTTTTTT [XGTACX_site8177],9.24
11,AATATTCAATATAAAGTGCATTATTGTGCCCCTAAT,9.06
12,TTTTTATTGTTATACTTATATTATTTTATGATTAAA [XGTACX_negctrl_site262],9.15
13,ATAAAAATCAAAAAAAATACATAATAGTAATAATAA [GTGCAC_negctrl_site481],9.46
14,AAATAATAAAGTATAACACACATATTTATTTATATA [CACACA_site7822],9.39
15,AAATAGAAAAAATATACACACACTTATTAAATAAAA [CACACA_site3313],9.86
16,CTGATATATTATTTATCTGAATATATTAATATGTAT [GTGCAC_negctrl_site82],9.11
17,AAAATTAAAAAAATATGTACTTATGGGTAACATCAT [XGTACX_site5548],9.24
18,TATCTTCATATATGGTGTACAGATTTTTTTTTTTTT [XGTACX_site5545],9.22
19,ATAAAATTATTATATACATGCAAAATTAATATATTG [TGCATGCA_site507],9.03
20,AAAATAAAAAAAATGAATTAGTTAAATGAAAAATAA [CACACA_negctrl_site1294],9.27
21,TTTCTTTTTTTGGGCACACAAAATTTTCTCATTTTA [CACACA_site68],9.22
22,ATTATATAATAATGCATGCACCTTATTTTCATTTCA [GTGCAC_site9922],9.28

row,Sequence,gcPBM binding intensity (ln)
1,TATTGAAAGTGAATTATAACATTAAAAATATATATA [TGCATGCA_negctrl_site566],9.11
2,TGAATATGTAAATGCACACCAAAAAAAAAAAAAAAA [CACACA_site3566],8.98
3,CAATATAAAAGACACACACACAAACATATATTTATA [CACACA_site7697],10.2
4,GAAGGAAATAAATCAACACACATATATTATAGATAT [CACACA_site7095],9.63
5,ATAATGTAAAATAAATGTACGCAATATATAAAAAAT [XGTACX_site5747],9.68
6,AAAAAATTTTAATATGCATGTAATTTTGCTTTTTCA [TGCATGCA_site1044],8.79
7,AGCACGCACAGACACACACACATATTTATATTTATA [CACACA_site6291],9.94
8,TAATATAGGGGTGTTCAAATAAATTTTGTTATTTTT [CACACA_negctrl_site1203],9.47
9,TCATTTTAAGGAAAAAGTACAAAATAATATGTTCCT [XGTACX_site1903],9.05
10,AATAGAAAAAAAAAATGTACAAAATGTTTATAAAAA [XGTACX_site4635],9.38
11,GATGTGTAAATAAGGATATATAACAATCAACAAAAC [XGTACX_negctrl_site494],9.72
12,ACGAATATAGGATGTTTGCACTGTACCAATAAATGA [GTGCAC_site9808],9.24
13,ACCTATTTCAAACACACACACACACCCACAAACATA [CACACA_site977],10.4
14,TTCTTAATACAAATATGTACATATATATATATATAT [XGTACX_site757],9.21
15,AAATTACCCTTGTGTACACATATATTATCTGTATTA [CACACA_site4514],9.69
16,AAATGAATATAAAATATACACACTTATATATTGAAT [CACACA_site202],9.47
17,GCTTATTAATATCATACACACATAGATATATTTATA [CACACA_site3104],9.54
18,TAAAAAATATAAACTGCACACACACTAATAAAGAAA [CACACA_site8119],10.1
19,ATTCGTCACATTTTTTGATATATATATATATATATA [CACACA_negctrl_site1785],9.41
20,AATATATAAATGTTGTGTACTAAGCAATATATTTTA [XGTACX_site2483],9.32
21,CTATTATCGGTTCCTACACACAAATATATATGTCTA [CACACA_site3579],9.87
22,ATATAGTTGTCATATTGTACACTTTAGGGTTGGTTA [XGTACX_site7339],9.31

row,Sequence,gcPBM binding intensity (ln)
1,CAATGGTACATACATACACACACACTAATAAAAAAA [CACACA_site8450],9.94
2,TACAATCCATATTGTTGTACATTTATAAAATTTACA [XGTACX_site3053],8.97
3,GTATATATATAAGAAGAAATATATAAATAAAATATA [CACACA_negctrl_site503],9.34
4,TATTATGTTTATTAAACATGCATATATTTATTTATA [TGCATGCA_site187],9.15
5,ATATTTTATCATGTTTAATATTTATGTGGACATAAA [GTGCAC_negctrl_site275],9.11
6,ACATTTTATATATGTAGTACATATTATAGATAATTT [XGTACX_site1976],9.12
7,AGTTGGATACGAAGATGTACAATAATAATAATTAAG [XGTACX_site3561],9.33
8,ATCAAAAACATACCTACACACACAATATGTATATAT [CACACA_site9171],10
9,TATTTTATTTTTTTATGTACACAAAAAAAAAAAAAA [XGTACX_site945],8.63
10,TCACTATAATAATTTACACACATTTTAAGAAAATGG [CACACA_site5867],9.25
11,AAGGATAATATATTAGAACACACATATATATGTAAA [CACACA_site7942],9.56
12,TTTATATAAAATTATTGTACAGTTTTAATATTTTAA [XGTACX_site6807],9.01
13,TACATACACAAATACACACACAAATACATACACAAA [CACACA_site704],10.1
14,TAAACAAATAAATATTGTACATTTTTTCCTTTTAAT [XGTACX_site5594],9.04
15,CACAGACACGGACACACACACATATATAATATATAT [CACACA_site4495],9.98
16,AAGATATGAACATTTTGTACTTAAAAATTCAATATT [XGTACX_site7103],9.01
17,GATTATACAAAATATACACACGTGTACAGAAATATT [CACACA_site8305],9.56
18,ATATATTTATTTATATGTACATATTATATATTATAG [XGTACX_site3371],9.35
19,TTATATTAATTTTGTTGTACTATTTGTGCATTAAAT [XGTACX_site4790],9.21
20,TTTATTAATTTATAGTGTACATATTAATAATATATT [XGTACX_site7949],9.09
21,ATATATATTATATATTGTACATATTATATTCATTAT [XGTACX_site1766],9.27
22,AAAAAATAAAACATATATAATATATAATATATATAT [GTGCAC_negctrl_site447],9.23
